These results are taken from the supplement of paper PMC3334620.

In all, about 33,000 sequences were measured (“E-score (-0.5 to 0.5)”: median about -0.056, highest 2% from about 0.38 on). The list shows a part of the results.

This assay addresses Stb4 (UniProt P50104). In words: PBM E-score (8-mer binding enrichment) (E-score (-0.5 to 0.5)); higher = stronger / more preferred TF binding; most listed sequences are background and not binding sites. Particulars: protein concentration: 200 nM; construct: GST-DNA-binding domain. On the procedure: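 Universal 'all 10-mer' protein binding microarrays (Agilent AMADID 015681) probed with GST-tagged S. cerevisiae TFs (full-length or DBD) made by in vitro transcription/translation (PURExpress), about 100-200 nM. Bound TF was detected with fluorescent anti-GST. Each ungapped 8-mer (which stands for itself and its reverse complement) is scored by the PBM enrichment score (E-score), a modified Wilcoxon-Mann-Whitney statistic from -0.5 to +0.5, computed with the Universal PBM Analysis Suite. Scale: above 0.35 generally sequence-specific binding.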
For ATCAGGGC, the “PBM E-score” value is -0.286.

CATCCATA: the “PBM E-score” value is -0.171.

In the case of GGGTGTGA, the “PBM E-score” value worked out at 0.0814.

As to CCTCCGCA, the “PBM E-score” value was -0.0298.

In the case of ACAATCGG, the “PBM E-score” value was determined as 0.306.

For GCATTGAC, the “PBM E-score” value was -0.0748.

As for CACAGGAA, the “PBM E-score” value was -0.14.

For the sequence GCTAGCAC, the “PBM E-score” value is -0.0526.

With TACCCATA, the “PBM E-score” value is -0.224.

For ATGCTGGA, the “PBM E-score” value was -0.174.

In the case of AGACAAAA, the “PBM E-score” value is -0.26.

Consider CACCGCAA, for which the “PBM E-score” value amounted to 0.0924.

For GCTCCTCC, the “PBM E-score” value was -0.252.

For GCACTCGC, the “PBM E-score” value was -0.0313.

In the case of AAGTGACA, the “PBM E-score” value was -0.0376.

Consider GCAGCGGA, for which the “PBM E-score” value was 0.193.

On to AATCTCAA, for which the “PBM E-score” value worked out at 0.123.

As for ACTTAGCA, the “PBM E-score” value is -0.066.

In the case of CCACCTCA, the “PBM E-score” value is -0.0243.

For the sequence GGTGTTAC, the “PBM E-score” value amounted to 0.0515.

Consider AACACGAC, for which the “PBM E-score” value is -0.207.

On to GAGCTTCC, for which the “PBM E-score” value came out at 0.188.

With AACATGGA, the “PBM E-score” value was -0.133.

Take GACCTGGC: the “PBM E-score” value is -0.0471.

As for GGGATAGA, the “PBM E-score” value was -0.0799.

As to GATGTGCC, the “PBM E-score” value was 0.102.

Consider AAGAAGAC, for which the “PBM E-score” value is -0.122.

Consider GGACCGAC, for which the “PBM E-score” value amounted to 0.276.

On to CACAGTGG, for which the “PBM E-score” value was -0.0386.

CAGAATTC: the “PBM E-score” value is -0.101.

As for CCCGATCA, the “PBM E-score” value is 0.268.

On to AACCCACA, for which the “PBM E-score” value is -0.127.

As for AGATAGCC, the “PBM E-score” value amounted to 0.0814.

As for CCCGACGC, the “PBM E-score” value came to 0.318.

Regarding ATCTTCTG, the “PBM E-score” value was found to be 0.0164.

In the case of CGCAGACC, the “PBM E-score” value was -0.116.

Turning to CGGCCCTC, the “PBM E-score” value was -0.00371.

Take GGGATCAC: the “PBM E-score” value was -0.0541.

Consider AGTAACGG, for which the “PBM E-score” value was found to be 0.103.

Turning to CCGATAGC, the “PBM E-score” value is 0.28.

Turning to AGGAGTAT, the “PBM E-score” value was -0.156.

Consider CAAGGGGC, for which the “PBM E-score” value amounted to 0.00314.

Regarding TAATGACA, the “PBM E-score” value was -0.00582.

In the case of ACATCCGA, the “PBM E-score” value is 0.486.

For ACACAATG, the “PBM E-score” value was -0.128.

Regarding AAGACGCG, the “PBM E-score” value was -0.0136.

Turning to CGGTTCTC, the “PBM E-score” value is 0.174.

Turning to CCGCTACG, the “PBM E-score” value was 0.0467.

Take GAGGCACC: the “PBM E-score” value is -0.0156.

On to ACCTGTTG, for which the “PBM E-score” value was -0.194.

Turning to ATATTCAC, the “PBM E-score” value is -0.141.

With GGCGTACA, the “PBM E-score” value is -0.157.

On to ACGACTTC, for which the “PBM E-score” value is -0.0604.

Regarding CCACGTCC, the “PBM E-score” value was -0.161.

In the case of CACTTATC, the “PBM E-score” value was -0.114.

On to CTGGGCAA, for which the “PBM E-score” value is -0.228.

On to ACTGGTAG, for which the “PBM E-score” value is -0.226.

As to CAATTTAA, the “PBM E-score” value was -0.105.

As for AAAATAGC, the “PBM E-score” value is -0.0271.

With ACTTTTTC, the “PBM E-score” value is -0.0229.

For CAGCCTCA, the “PBM E-score” value is -0.157.

In the case of CGATCGCG, the “PBM E-score” value amounted to 0.134.

CGTGTTGC: the “PBM E-score” value was determined as 0.0451.

As for AGTAACTG, the “PBM E-score” value was -0.176.

Take AGCAAACT: the “PBM E-score” value is -0.0478.

Take ACGGACAA: the “PBM E-score” value amounted to 0.058.

Turning to CATTCCCC, the “PBM E-score” value was found to be 0.119.

As to ACCATGTC, the “PBM E-score” value was -0.0118.

On to CGGTTTTA, for which the “PBM E-score” value was 0.197.

For the sequence CTGCTATA, the “PBM E-score” value worked out at 0.0268.

On to GCGTGACA, for which the “PBM E-score” value is -0.0588.

For the sequence CCTAAGCA, the “PBM E-score” value is -0.165.

In the case of GAAATGCA, the “PBM E-score” value is -0.0344.

GCGCTGCC: the “PBM E-score” value is -0.146.

As for CAATCGAG, the “PBM E-score” value is -0.232.

In the case of CCGAATTC, the “PBM E-score” value came to 0.398.

For GGTAATTA, the “PBM E-score” value came to 0.26.

For GACATGAC, the “PBM E-score” value is -0.149.

Consider CGACGGCA, for which the “PBM E-score” value is 0.182.

For the sequence AAGCTCTA, the “PBM E-score” value was -0.166.

On to ATCACGGG, for which the “PBM E-score” value is 0.0959.

Take CGCTGGAA: the “PBM E-score” value is 0.0444.

As to GGAAGTAA, the “PBM E-score” value was 0.258.

For CGCGCTGA, the “PBM E-score” value is -0.108.

As for AGCAGTCC, the “PBM E-score” value is -0.137.

As for GACATTCA, the “PBM E-score” value was 0.052.

As to TTACTGAA, the “PBM E-score” value is -0.122.

As for GTACACGA, the “PBM E-score” value was -0.0694.

As to CCGTATGA, the “PBM E-score” value came to 0.0582.

Regarding ATAGATAC, the “PBM E-score” value stood at 0.0388.

Turning to CAAAAGGG, the “PBM E-score” value is -0.267.

In the case of TCTGCTCA, the “PBM E-score” value was -0.299.

GAAAAGAC: the “PBM E-score” value turned out to be 0.0366.

As for CGCCTTAC, the “PBM E-score” value is -0.0919.

Regarding GACAAATC, the “PBM E-score” value was -0.00095.

CTAAGACA: the “PBM E-score” value is -0.0966.

On to CCGGTTTC, for which the “PBM E-score” value is 0.259.

Regarding GAAAAAAA, the “PBM E-score” value is 0.162.

As to AGGCCCTG, the “PBM E-score” value is -0.199.

With CCCCGACG, the “PBM E-score” value is 0.277.

As for AACATGTG, the “PBM E-score” value was -0.00801.

For the sequence CGGTGACA, the “PBM E-score” value is 0.163.

As for CATAGCAC, the “PBM E-score” value is -0.0999.

Take CTAAACAG: the “PBM E-score” value is -0.123.

Turning to AACCCGCG, the “PBM E-score” value came to 0.172.

CTAAAGAG: the “PBM E-score” value is -0.169.

For CTAGACGC, the “PBM E-score” value is -0.226.

On to CGTTACCA, for which the “PBM E-score” value was -0.193.

Turning to CTTATTTC, the “PBM E-score” value was found to be 0.0623.

With ATTACTTA, the “PBM E-score” value was 0.0911.
